The whole screen tested about 360,000 compounds, of which about 660 (0.18%) were called active. The inconclusive results got no clear call from the source; some entries with a clear call stand among them for comparison. Calls follow the shape of the dose curve; as a rule, active = well fitted inhibition curve with a large enough effect; inconclusive = small, poorly fitted or top-dose-only effect; inactive = no such curve, though single readings can be large or run the other way. Potencies of inconclusive entries are left out as doubtful fits.
Target: Rap guanine nucleotide exchange factor 4 (Homo sapiens) (UniProt Q8WZA2)
Experiment: qHTS for Antagonist of cAMP-regulated guanine nucleotide exchange factor 2 (EPAC2): primary screen; also: nearly all actives have a fitted effect of over 45% in size
Conditions: EPAC2 GEF exchange of Rap1B-BODIPY-GDP, fluorescence; activity, negative = inhibition: at 114 µM (top of the series)
% is scaled to controls: 0 for no effect and ±100 for the full control effect; potency is read from the fitted curve at half-maximal effect; tags tell the direction and shape of the fitted curve.

Sequence of UniProt Q8WZA2 (Q8WZA2 whole entry, looked up): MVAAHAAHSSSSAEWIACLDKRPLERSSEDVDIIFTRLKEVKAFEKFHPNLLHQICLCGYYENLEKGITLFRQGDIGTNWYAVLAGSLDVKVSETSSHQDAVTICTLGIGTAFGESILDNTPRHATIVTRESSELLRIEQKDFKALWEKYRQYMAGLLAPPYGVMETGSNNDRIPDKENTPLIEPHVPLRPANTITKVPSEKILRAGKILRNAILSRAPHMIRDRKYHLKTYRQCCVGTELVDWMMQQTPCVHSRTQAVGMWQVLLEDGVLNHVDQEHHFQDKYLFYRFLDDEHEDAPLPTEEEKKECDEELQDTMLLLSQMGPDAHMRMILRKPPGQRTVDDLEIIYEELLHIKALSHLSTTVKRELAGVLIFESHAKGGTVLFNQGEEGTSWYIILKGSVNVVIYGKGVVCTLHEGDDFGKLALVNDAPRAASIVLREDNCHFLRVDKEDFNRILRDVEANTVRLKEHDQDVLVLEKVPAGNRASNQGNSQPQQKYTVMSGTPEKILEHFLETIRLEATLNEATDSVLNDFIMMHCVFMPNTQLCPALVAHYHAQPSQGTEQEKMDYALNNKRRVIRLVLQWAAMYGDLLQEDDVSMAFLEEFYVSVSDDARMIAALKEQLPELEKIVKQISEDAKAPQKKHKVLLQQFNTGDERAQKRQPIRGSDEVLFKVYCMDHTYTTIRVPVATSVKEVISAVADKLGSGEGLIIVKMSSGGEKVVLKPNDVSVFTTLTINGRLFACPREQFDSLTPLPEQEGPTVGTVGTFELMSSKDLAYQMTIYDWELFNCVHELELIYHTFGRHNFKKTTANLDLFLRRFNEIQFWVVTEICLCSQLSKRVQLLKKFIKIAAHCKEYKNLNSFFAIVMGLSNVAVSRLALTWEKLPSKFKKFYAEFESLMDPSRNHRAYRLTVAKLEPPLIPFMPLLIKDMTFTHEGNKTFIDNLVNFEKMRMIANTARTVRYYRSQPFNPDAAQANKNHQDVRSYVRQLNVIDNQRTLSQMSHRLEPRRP

SMILES | activity, negative = inhibition | Potency
CC1=C(C/C(C)=C/c2ccccc2)/C(=C/CO)[C@@H]2OC(=O)O[C@]2(C)C12CC2 | inconclusive: -4.36% [inhibitor] | –
CCOC(=O)[C@]12Cc3cc4ccccc4cc3[C@H]1N(Cc1ccccc1)C(=O)c1ccccc12 | – | inconclusive [inhibitor, full curve]
COC(=O)[C@@]12C[C@@H](CC(=O)NCc3cccc(C(F)(F)F)c3)C(=O)N(Cc3ccco3)C1=CCC(C)(C)C2 | – | inconclusive [inhibitor, partial curve]
O=c1[nH]c2ccccc2n1C1CCN(C(c2cccs2)c2nnnn2Cc2ccccc2)CC1 (stereo not given) | – | inconclusive [inhibitor, partial curve]
Nc1ccc(Cl)cc1C(=O)c1ccccc1Cl | – | inconclusive [inhibitor, partial curve]
CN1C(=O)C(=Cc2ccccc2OS(=O)(=O)c2ccccc2)C(=O)N(C)C1=O | – | inactive
CCOc1cccc(N2C(=O)/C(=C/c3ccco3)C(=O)NC2=S)c1 | – | inactive
CCOC(=O)c1ccc(S(=O)(=O)n2c(=O)oc3ccccc32)cc1 | – | inconclusive [inhibitor, single point]
Cc1cccc(OP(=O)(Nc2cccnc2)Oc2cccc(C)c2)c1 | – | inactive
CCc1nc2c(OCc3ccc(C(F)(F)F)cc3)cccn2c1N(C)C(=O)C(C)C | – | inconclusive [inhibitor, full curve, poor fit]
COC(=O)C1=C(c2ccc(OC(F)(F)F)cc2)C[C@@H]2CC[C@H]1N2C(=O)N1CCCCC1 | – | inconclusive [inhibitor, partial curve]
Oc1c(Br)cc(-c2ccccc2)cc1Br | – | inconclusive [inhibitor, partial curve]
C[C@]12CC[C@H]3[C@@H](CCC4=CC(=O)CC[C@@H]43)[C@@H]1CC[C@@H]2O | – | inactive
COc1ccc(C/C(=N\OC(C)=O)c2ccc(OC)cc2)cc1 | – | inconclusive [inhibitor, partial curve]
Cc1cc(O)c2c(c1)OC(C)(C)C1=C2CC(C)CC1 (stereo not given) | – | inconclusive [inhibitor, partial curve]
CC(C)COC(=O)c1ccccc1C(=O)OCC(C)C | – | inconclusive [inhibitor, partial curve]
CC(C)=CCc1c(O)cc2c(c1O)C(=O)CC(c1ccc(O)cc1)O2 (stereo not given) | – | inconclusive [inhibitor, partial curve]
N#Cc1ccccc1Cn1cc(C(=O)c2ccccc2F)c2ccccc21 | – | inconclusive [inhibitor, single point]
CCCNC(=O)N1[C@H]2CC[C@@H]1C(C(=O)OC)=C(c1ccc(F)cc1OCc1ccccc1)C2 | – | inconclusive [inhibitor, single point]
CCN(CC)C(=O)Oc1ccc2ccccc2c1Cl | – | inconclusive [inhibitor, single point]

SMILES | activity, negative = inhibition | Potency
Cc1cccc(NP(=O)(Oc2ccccc2F)Oc2ccccc2F)c1 | – | inconclusive [inhibitor, partial curve]
CCCCn1c(N)c(C(=O)OCCOC)c2nc3ccccc3nc21 | – | inactive
CCCCn1c(O)c(C(CC)=NCCc2ccccc2)c(=O)[nH]c1=O | – | inactive
COc1ccccc1-n1c(-c2cccs2)nc2ccccc2c1=O | – | inconclusive [inhibitor, full curve]
Cc1nc(-c2cccc(NC(=O)c3ccc(Cl)c(S(=O)(=O)N4CCCC4)c3)c2)cs1 | – | inactive
O=P(Nc1cccc(Cl)c1)(Oc1ccccc1)Oc1ccccc1 | – | inconclusive [inhibitor, partial curve]
COc1nc2ccccc2nc1N1CC1 | – | inconclusive [inhibitor, partial curve]
COC(=O)C1=C(C)N(Cc2ccco2)C(=O)/C1=C\c1ccc(N(C)C)cc1 | – | inconclusive [inhibitor, single point]
Cc1ccc(OP(=O)(Nc2cccc(C)c2)Oc2ccc(C)cc2)cc1 | – | inconclusive [inhibitor, full curve, poor fit]
CCCCCN1C(=O)c2ccccc2[C@@]2(C(=O)OCC)Cc3cc(Cl)ccc3[C@@H]12 | – | inconclusive [inhibitor, partial curve]
C#C[C@]1(O)CCC2C3C(=O)C=C4C(Cl)=CCC[C@]4(C)C3CC[C@@]21C (stereo not given in full) | – | inconclusive [inhibitor, single point]
O=S(=O)(c1cccc2ccccc12)N1Cc2ccccc2-n2nncc2C1 | – | inconclusive [inhibitor, full curve, poor fit]
COC(=O)C1=C(c2cc3ccccc3s2)C[C@@H]2CC[C@H]1N2C(=O)NC1CC1 | – | inconclusive [inhibitor, partial curve]
COC(=O)C1=C(c2ccc(OC(F)(F)F)cc2)C[C@@H]2CC[C@H]1N2C(=O)N1CCC(C)CC1 | – | inconclusive [inhibitor, partial curve]
CCOC(=O)C1(CCc2ccccc2)CCN(Cc2csc(C(C)=O)c2)CC1 | – | inconclusive [inhibitor, partial curve]
CCCOc1ccccc1NP(=O)(Oc1ccccc1)Oc1ccccc1 | – | inconclusive [inhibitor, full curve]
O=C(O)CSCC(=O)N(Cc1ccccc1)c1nc(-c2ccccc2)c(-c2ccccc2)s1 | – | inconclusive [inhibitor, partial curve]
COc1ccc(S(=O)(=O)N2c3ccc(F)cc3CCC2C)cc1 (stereo not given) | – | inconclusive [inhibitor, partial curve]
Cc1nn(CCC#N)c2c1P(=S)(N1CCCC1)OC(c1ccc(F)cc1)=N2 (stereo not given) | – | inactive
CCOc1ccc(/C=C2/C(=O)NC(=O)N(CCc3ccc(F)cc3)C2=O)cc1 | – | inactive

SMILES | activity, negative = inhibition | Potency
COc1ccc(-c2cc(=O)oc3c(C)c(OC(C)C(=O)N4C[C@H]5C[C@@H](C4)c4cccc(=O)n4C5)ccc23)cc1 (stereo not given in full) | – | inconclusive [inhibitor, partial curve]
Clc1cccc(Cl)c1NC1=NCCS1 | – | inconclusive [inhibitor, single point]
COc1ccc(N2C(=O)/C(=C/c3cccs3)C(=O)NC2=S)cc1 | – | inactive
CCOC(=O)[C@]12Cc3cc(Cl)ccc3[C@H]1N(C)C(=O)c1ccccc12 | – | inactive
CCn1c(O)c(C=NCc2cccs2)c(=O)[nH]c1=O | – | inactive
CN(C)c1ccc(/C=C/c2cc[n+](C)c3ccccc23)cc1 | – | inconclusive [inhibitor, partial curve]
COc1ccc(/C=C2/C(=O)NC(=S)N(C3CC3)C2=O)cc1CN1C(=O)c2ccccc2C1=O | – | inactive
CN1C2CCC1/C(=C/c1ccccn1)C(=O)/C2=C\c1ccccn1 | – | inactive
CCC(C)n1c(O)c(/C=N/Nc2nc3c(c(=O)n(C)c(=O)n3C)n2C)c(=O)[nH]c1=S (stereo not given) | – | inconclusive [inhibitor, partial curve, poor fit]
CCOC(=O)[C@]12Cc3cc(Cl)ccc3[C@H]1N(Cc1ccccc1)C(=O)c1ccccc12 | – | inconclusive [inhibitor, full curve]
COc1cc2c(cc1O)[C@@H]1Cc3ccc(OC)c(O)c3CN1CC2 | – | inactive
O=c1[nH]c(O)c(N=Nc2cc([N+](=O)[O-])ccc2O)c(=O)[nH]1 | – | inconclusive [inhibitor, partial curve]
COc1cccc2c1C(=O)c1c(O)c3c(c(O)c1C2=O)CC(O)(C(C)=NO)CC3OC1CC(N)C(O)C(C)O1 (stereo not given) | – | inactive
Cc1ccc(-n2c(O)c(/C=C/C=Nc3ccccc3)c(=O)[nH]c2=O)cc1 | – | inconclusive [inhibitor, single point]
Cc1ccc(C2=CCNCC2)cc1 | – | inactive
Brc1ccc(Oc2cc(Br)c(Br)cc2Br)c(Br)c1 | – | inconclusive [inhibitor, full curve]
Cc1ccccc1CN1CCCN(Cc2ccc(Cl)cc2)S1(=O)=O | – | inconclusive [inhibitor, single point]
Clc1ccccc1C1NCc2ccccc2-n2cccc21 (stereo not given) | – | inconclusive [inhibitor, full curve]
Cc1ccc(OP2(=O)Nc3cc(C)c(C)cc3S2)cc1 (stereo not given) | – | inactive
Cc1cc(/C=C2\C(=O)NC(=O)N(c3cccc(F)c3)C2=O)c(C)n1-c1ccc(C(=O)O)c(Cl)c1 | – | inconclusive [inhibitor, single point]

From PubChem BioAssay AID720708 (National Center for Advancing Translational Sciences (NCATS), 2013)
